According to the supplement of paper PMC3334620:
The full ranking holds about 33,000 sequences; the median of “E-score (-0.5 to 0.5)” is about -0.054, and the highest 2% start at about 0.35. The list shows a part of the results.

biological target: T1, Stb5 (UniProt P38699); experiment: PBM E-score (8-mer binding enrichment) (E-score (-0.5 to 0.5)); higher = stronger / more preferred TF binding; most listed sequences are background and not binding sites; details: protein concentration: 200 nM; construct: GST-full length
T1 sequence: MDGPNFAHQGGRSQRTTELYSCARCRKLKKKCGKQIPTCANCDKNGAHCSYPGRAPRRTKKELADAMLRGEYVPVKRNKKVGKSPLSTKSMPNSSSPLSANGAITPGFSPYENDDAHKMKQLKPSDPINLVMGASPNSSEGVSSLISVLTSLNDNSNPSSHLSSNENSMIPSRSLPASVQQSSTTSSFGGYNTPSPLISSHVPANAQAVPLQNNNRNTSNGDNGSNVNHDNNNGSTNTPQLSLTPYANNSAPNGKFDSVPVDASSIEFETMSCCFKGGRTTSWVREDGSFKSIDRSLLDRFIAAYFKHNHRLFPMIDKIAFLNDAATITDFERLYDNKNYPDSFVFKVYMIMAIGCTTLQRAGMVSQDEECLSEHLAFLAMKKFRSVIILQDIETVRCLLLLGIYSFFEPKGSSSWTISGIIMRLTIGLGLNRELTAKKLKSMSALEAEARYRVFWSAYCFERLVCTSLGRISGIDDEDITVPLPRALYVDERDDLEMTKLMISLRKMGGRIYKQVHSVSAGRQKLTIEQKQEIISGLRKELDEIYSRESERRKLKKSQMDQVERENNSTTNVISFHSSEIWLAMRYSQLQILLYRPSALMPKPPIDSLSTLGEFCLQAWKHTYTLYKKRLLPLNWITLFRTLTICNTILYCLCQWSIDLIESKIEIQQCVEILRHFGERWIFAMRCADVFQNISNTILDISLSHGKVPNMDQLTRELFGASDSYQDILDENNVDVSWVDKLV
Summary of the method: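 Bound GST-tagged yeast transcription factors, applied at about 100-200 nM to double-stranded universal all-10-mer Agilent arrays, were detected with fluorescent anti-GST. Scans were normalised with masliner. A modified Wilcoxon-Mann-Whitney statistic, the E-score, was assigned to each ungapped eight-base word pooled with its reverse complement by the Universal PBM Analysis Suite.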

Sequence	PBM E-score
ACTGCACC	-0.0781
GTTAGTCA	0.0698
CGGGGACA	0.415
AAAATCCG	0.345
ATACTATA	0.146
AAAATCGA	-0.207
GCGTCTGA	-0.0757
CTGAGGCA	-0.316
AACGATAT	-0.176
CGATGCGC	0.0858
CGTAAAAG	0.0294
CAACTCAA	-0.0921
CACGAGAG	-0.108
AATGGGAT	-0.00508
TCAGCTAA	-0.245
CTAATCTC	0.0426
GACCTGAA	-0.0099
CGCATGTC	0.0499
GATACATA	-0.0598
CGGAACCG	0.107
CCTTCCCC	-0.152
CGTAACCA	-0.283
ACACCAGA	-0.0876
CCAAGGGC	-0.152

Sequence	PBM E-score
AAACGTTA	-0.0679
CGGTTTAC	0.058
CGATCTCC	0.0163
TTTAGAAA	-0.066
AGTCCTGA	-0.134
GCTCTATA	0.132
AATGGACT	-0.127
CTGACTGA	-0.259
AAAGTGGG	-0.015
AATTATAT	0.158
AGAACAAA	0.207
CGCGCGAG	0.108
CAGCTAGC	-0.0953
ACATGCAG	-0.0832
CTACCGAG	0.107
CTTTAATA	0.244
CGTCGAAC	-0.0581
AGACAAAC	0.0348
CTAGTGGC	-0.191
AATAGGCC	0.115
AACAGGTA	-0.0862
ATGAGGTC	-0.171
AGTGGTCA	-0.31
CAAACGAA	-0.241

Sequence	PBM E-score
CCACCCGG	0.0156
AACAAACT	-0.169
ACTCAAAG	-0.193
CCTCGACC	-0.205
CTCAGCGA	-0.139
AGCAAGCC	-0.274
CCGGATGA	0.0663
AAGCGTGA	-0.16
ACCTGGAT	-0.183
TATCGATA	-0.173
AGCCTAAG	-0.0395
ACGCGTAT	-0.0753
GGAGTAGA	0.0616
ATCGACAG	-0.242
GTTGTCTA	-0.114
CACACAGA	-0.277
AACCTATA	-0.0161
AGCTGGTC	-0.26
CGTCTAAG	0.0962
CCAAGACG	-0.0773
ACTGTCCA	-0.137
CTTGTCGA	-0.254
CAGTTCCG	0.0961
AAATTTGG	-0.253

Sequence	PBM E-score
ATGAGTCC	0.2
ATAAGCGC	0.181
AGAGCCAT	-0.197
GCCAGTCC	0.0393
CTGCACTC	-0.0352
AGACCCCG	0.394
AATGAGGG	-0.167
GACAAAGC	-0.06
CTTGCACA	-0.225
CCCACGTC	-0.0947
CGCGGCAG	0.212
ACTGTTTC	-0.0587
ACCTATCT	-0.112
AGCCCGAC	0.373
GATCGAGC	-0.0559
GACCCCTA	-0.323
ATGAGGCG	0.0355
ATCGGTTG	0.0401
ACGATAGT	-0.274
CTGGGGGC	-0.245
AGCAATGA	-0.131
GGAGTTCA	0.00589
